# Reference: the supplement of paper PMC10338343
# ± gives the standard deviation. This is a selection; strong and weak results do not stand in their true shares.
# Tested on: MIWI (PIWIL1) piRISC loaded with piRNA #1 (30 nt)
# Assay: pre-steady-state target cleavage rate (min^-1); MIWI and MILI are mouse PIWI proteins and EfPiwi is from a freshwater sponge; tags in brackets are library labels; higher = faster piRNA-guided slicing of the target
# Conditions: guide: piRNA #1 5'p-UGAGGUAGUAGGUUGUAUAGUAUCCAGAGG; auxiliary factor: 500 nM mouse GTSF1
# Outline: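 The pre-steady-state cleavage rate came from a burst-and-steady-state fit to pooled data from three Cleave-'n-Seq trials, in which uncleaved targets were sequenced and normalised to depth and to weakly complementary targets. Each reaction held 0.1 nM transcribed, DNA-blocked target RNA library and 1 nM active affinity-purified piRISC carrying one synthetic guide, with or without 500 nM GTSF1 partner protein, in HEPES–potassium acetate buffer at 33 °C for 0–8 or 0–960 min. k3 was capped at 0.0001 min^-1.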
row,Sequence,pre-steady-state target cleavage rate
1,GGAGACGAUACUAUACAACCUACUAGCUGA,0.166 ± 0.058
2,GGAGUGGAUACUAUACAUCCAACUACCUCA,0.0901 ± 0.011
3,GGAGACCUAUGAUAUCAACCUACUACCAGA [g4:g15:cont:t1A],< 0.0001
4,GGAGACCUAUCUAUCAACCUACUACCUCA,0.0324 ± 0.0055
5,GGUCUGGAUACUAUACAACCUACUAGGACA,< 0.0001
6,GCUCUCGAUACUAUACAACCUAGUACCUCA,0.496 ± 0.057
7,GGUCUGGAUACUUACAACCUACUACCUCA,0.902 ± 0.093
8,GGAGUGGAUACUAUAGUUCCUACUACCUCA,0.158 ± 0.025
9,GGAGACCUUACUAUUCAUCCUACUACCUCA,0.53 ± 0.043
10,GGAGAGGAUAGUAUACAACCUACUUCCUCA,0.0124 ± 0.0038
11,GGAGACCUUACUAUACAACCUACUACCAGA,0.712 ± 0.058
12,GGAGACCUAUGAUUAGAUCCUACUACCUCA,< 0.0001
13,GGACUGGAACUAUACAACCUACUACCUCA,1.49 ± 0.12
14,GGAGACCUAAUUAUACAACCUACUACCUCA,0.813 ± 0.096
15,GCUCUGGAUACUAUACAACCUAGUACGUCA,0.166 ± 0.029
16,GGAGACCUAUGUAUACAACGUACUACGUCA,0.00269 ± 0.0026
17,GCUCUGGAUACUAUACAACCAACUACCACA,0.153 ± 0.018
18,CCUCUGGAUAUUAUACAACCUACUACCUCA,2.15 ± 0.12
19,GGAGACCUAUGUAUACAACCUACUAGCCUCA,0.0396 ± 0.0073
20,GGAGACCUAUGUGUACAACCUACUACCUCA,0.0194 ± 0.0048

row,Sequence,pre-steady-state target cleavage rate
1,CCUCUGGAUAGUAUACAACCUACUACCACA,0.0403 ± 0.012
2,GGAGACCUAUGAUAUGUUGCUACUCACCUCA,< 0.0001
3,CCUCUGGUAACUAUACAACCUACUACCUCA,0.755 ± 0.035
4,GGAGACCAUCCUAUACAACCUACUACCUCA,1.73 ± 0.21
5,GGUCUGGAUACUAUACUACCUACUACCUGA,0.803 ± 0.12
6,GGUCUGGAUACUAUACAACCUUCAACCUCA,0.16 ± 0.024
7,GGAGAGGAAUGUAUACAACCUACUACCUCA,0.197 ± 0.017
8,GGAGUCGAUACUAUACAAGCUACUACCUCA,0.442 ± 0.025
9,GGAGACGAAACUAUACAAGCUACUACCUCA,0.872 ± 0.057
10,GGUCUGGAUACUUUACAUCCUACUACCUCA,1.35 ± 0.083
11,CCUCUGGAUACUAUAGAUCCUACUACCUCA,1.38 ± 0.085
12,GCUCUUGAUACUAUACAACCUACUACCUCA,2.03 ± 0.11
13,GGAGACCUAACGUAUACAACCUACUACCUCA,0.11 ± 0.025
14,GGAGAGGUAACUAUACAACCUACUACCUCA,0.489 ± 0.045
15,GGAGACCAUAACUAUACAACCUACUACCUCA,1.24 ± 0.089
16,GGUCUGGAUUCUAUACAACCUACUACCUCA,1.77 ± 0.098
17,CCUCUCGAUACUAUACAAGCUACUACCUCA,1.58 ± 0.081
18,GGAGACCUAACUAUACAACCUACUACCUCCA,0.849 ± 0.061
19,GGAGACCUUACUAUACAACCUACUUGCUCA,0.258 ± 0.025
20,GGAGACGAUACUAAACAACCUACUAGCUCA,0.498 ± 0.048
